Experimental data taken from PubChem BioAssay AID488969 (Vanderbilt High Throughput Screening Facility, 2010).
The full ranking holds about 110,000 compounds; the median of “z-score” is about -0.1, and the highest 2% start at about 2. Some of the results follow. The source made the active and inactive calls.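 The calls were made as follows: active = z-score in the third read window above 3 or below -3; inactive = the rest.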

Target: Metabotropic glutamate receptor 8 (Rattus norvegicus) (UniProt P70579)
UniProt P70579, sequence (P70579 whole entry, looked up): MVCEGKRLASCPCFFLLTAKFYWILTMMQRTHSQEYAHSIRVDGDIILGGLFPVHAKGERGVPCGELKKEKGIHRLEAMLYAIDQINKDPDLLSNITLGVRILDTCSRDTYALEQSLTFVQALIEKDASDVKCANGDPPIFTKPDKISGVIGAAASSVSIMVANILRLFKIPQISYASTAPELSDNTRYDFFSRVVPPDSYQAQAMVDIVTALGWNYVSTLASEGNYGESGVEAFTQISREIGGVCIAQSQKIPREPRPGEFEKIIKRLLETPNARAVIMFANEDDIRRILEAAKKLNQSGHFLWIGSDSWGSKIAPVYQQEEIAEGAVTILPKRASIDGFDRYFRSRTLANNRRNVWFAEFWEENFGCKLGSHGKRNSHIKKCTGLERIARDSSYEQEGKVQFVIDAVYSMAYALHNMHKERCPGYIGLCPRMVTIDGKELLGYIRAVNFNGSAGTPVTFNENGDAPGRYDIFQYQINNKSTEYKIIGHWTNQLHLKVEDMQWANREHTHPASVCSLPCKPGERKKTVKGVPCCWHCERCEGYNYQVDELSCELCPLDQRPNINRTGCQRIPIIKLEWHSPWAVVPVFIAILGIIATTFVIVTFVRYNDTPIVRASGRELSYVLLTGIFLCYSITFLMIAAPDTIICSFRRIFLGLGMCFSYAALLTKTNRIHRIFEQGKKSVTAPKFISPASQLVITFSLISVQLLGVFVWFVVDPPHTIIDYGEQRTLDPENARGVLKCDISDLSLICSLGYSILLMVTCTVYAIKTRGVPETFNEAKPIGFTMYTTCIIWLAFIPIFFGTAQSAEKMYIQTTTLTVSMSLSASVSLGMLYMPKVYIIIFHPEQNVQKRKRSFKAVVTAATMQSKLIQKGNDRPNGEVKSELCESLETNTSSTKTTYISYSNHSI
Assay: rat mGluR8 modulators via GIRK flux, primary screen, cell-based, thallium flux, HTS (AID 488969)
Settings: HEK293 rat mGluR8, GIRK (G protein-gated inwardly rectifying potassium channel) thallium flux, FluoZin2; at 10 µM; stronger effect = higher value; submaximal glutamate (EC20) added with thallium

Compound	z-score
O=c1ccnc(NCCc2ccccc2)[nH]1	0.381
C/C(=N\NC(=S)Nc1cccc(C)c1)c1ccccc1	active: 5.36
CCOc1ccccc1CNC(=O)C1CCC(=O)N1C(C)C (stereo unspecified)	0.137
CCNc1cc(N2CCN(S(=O)(=O)c3ccc4c(c3)CCCC4)CC2)ccc1[N+](=O)[O-]	0.0362
Cc1[nH]n(-c2cccc3ccccc23)c(=O)c1C=Nc1ccc2[nH]c(=O)[nH]c2c1	-0.151
O=C(N/N=C/c1ccccc1O)C1(O)c2ccccc2-c2ccccc21	-0.141
CCCNC(=O)CN(c1ccc(F)cc1)S(=O)(=O)c1ccc2c(c1)OCCO2	-0.0348
Cc1sc(NC(=O)CN2CCOCC2)c(C(=O)c2ccccc2)c1C	-0.16
CCC(=O)N(C)CCc1cc2c(c(OC)c1/C=N/NC(=O)c1ccc(Br)cc1)OCO2	-0.518
CCCCNCCOCCOc1ccc(C)cc1Br	-0.351
CC(=O)Nc1ccc(NC(=O)COC(=O)c2ccc(C)s2)cc1	-0.0429
COc1ccc(C2CC(c3c(-c4ccccc4)c4cc(Cl)ccc4[nH]c3=O)=NN2S(C)(=O)=O)cc1OC (stereo unspecified)	-0.144
CC(NC(=O)CN1C(=O)NC(Cc2ccccc2)(Cc2ccccc2)C1=O)C12CC3CC(CC(C3)C1)C2 (stereo unspecified)	0.381
COC(=O)C1=C(C)NC(=S)NC1c1ccc(-c2cccc(Cl)c2)o1 (stereo unspecified)	-0.157
CC(C)OC(=O)C(CC(=O)O)N1CCOCC1 (stereo unspecified)	-0.0224
CC1(C)CC(=O)C2=C(C1)N(c1ccccc1C#N)C(N)=C(C#N)C2c1cccs1 (stereo unspecified)	-0.944
CCNC(=O)Cc1ccc(Br)cc1	-0.118
Cc1ccc(Cn2ccc(NC(=O)c3cc4nc5c(c(C(F)(F)F)n4n3)CCc3ccccc3-5)n2)cc1	-0.0356
CCO/N=C(/C)c1c(O)cc(C(C)(C)C)n(-c2ccccc2)c1=O	-0.388
CC(C)Oc1ccc(Oc2ccc(C(F)(F)F)cn2)cc1	-0.146
CCCCSCc1[nH]c(=O)[nH]c1C(=O)CCCCC(=O)OCC	0.784
CCCCSc1nc(C)nc2c1c(=O)n(C)c(=O)n2C	-0.303
C/C(=N\O)C(=O)NCCCNCCCN(C)C	-0.317

Compound	z-score
CC1(C)CC2CC(C)(CN2c2ncnc3ccccc23)C1 (stereo unspecified)	-0.947
CC(/C=N/NC(=O)CCn1nnc2ccccc21)=C\c1ccccc1	-0.813
O=c1nc(NC2CCCC2)ccn1Cc1cccc(Br)c1	-0.419
CCCC(O)(CCN(C)C)c1ccc(OC)cc1 (stereo unspecified)	-0.12
O=C1CC(N2CCN(c3ccc(S(=O)(=O)N4CCCC4)cc3)CC2)C(=O)N1c1ccc(F)cc1 (stereo unspecified)	-0.454
Cc1ccccc1NC(=O)C(C)c1cccc(C(=O)c2ccccc2)c1 (stereo unspecified)	-1.23
COc1cccc(/C=N/NC(=O)c2cc(-c3cccn3C)n[nH]2)c1O	0.54
COc1ccc(OC)c(Nc2nc3nonc3nc2N2CCCC(C)C2)c1 (stereo unspecified)	-0.105
CCOC(=O)CCC(NC(=O)c1ccc(NCN2C(=O)CCC2=O)cc1)C(=O)OCC (stereo unspecified)	-0.434
CCOc1ccccc1-c1nnc(SCC(=O)Nc2ccccc2)o1	0.401
Cn1cccc1C(=O)C(=O)Nc1cccc(Cl)c1Cl	-0.0708
CC(=O)C1C(c2ccc(F)c(F)c2)NC(=O)NC1(O)C(F)(F)F (stereo unspecified)	0.336
CCN(CC)c1nc(Nc2ccccc2)nc(Oc2ccc(=O)[nH]n2)n1	-1.5
CC(C)Oc1ccc(CC2CCC(=O)N(C)C2=O)cc1 (stereo unspecified)	-0.385
Cc1nc(Nc2ccc(Cl)cc2Cl)sc1C(=O)Nc1ccccc1	-0.181
COc1cc2c3c(c1OC)C1(C=CC(=NNC(N)=O)C=C1)CC3N(C(C)=O)CC2 (stereo unspecified)	-0.321
COc1ccc(CN2CCN(S(=O)(=O)c3ccccc3)CC2)cc1Br	-0.44
COC(=O)c1sccc1NC(=O)c1ccc(C)o1	-0.261
CCOC(=O)N1CCC(NC(=O)C(NC(=O)C2CCC(C)CC2)C(C)CC)CC1 (stereo unspecified)	0.0225
O=C(NCCO)/C(=C\c1ccc(Br)cc1)NC(=O)c1cccs1	0.19
CCOC(=O)c1cc2c(C)n(-c3ccc(OCC)cc3)c(C)c2cc(C(=O)OCC)c1=O	-0.0746
COc1ccc(C2(CNC(=O)/C=C\c3ccco3)CCCC2)cc1OC	-0.163
Cn1c(=O)[nH]c(=O)c2c1nc(N1CCOCC1)n2CCSc1nc2ccccc2[nH]1	-0.0622

Compound	z-score
CS(=O)(=O)N(CC(=O)NCC1CCCO1)c1ccc(F)c(Cl)c1 (stereo unspecified)	0.0103
Cc1cc(C(=O)Nc2ccccc2N2CCOCC2)c2ccccc2n1	-0.137
N#CC1(Cc2ccc([N+](=O)[O-])cc2)c2ccccc2C=CN1C(=O)c1ccccc1 (stereo unspecified)	2.08
Cc1cccc(NC(=O)c2ccccc2OCC(=O)c2ccc(F)cc2)c1	0.0508
O=C(CSc1nnc(-c2cccs2)n1Cc1ccccc1)N1CCc2ccccc2C1	-1.37
COC(=O)c1ccc(Oc2c(Cl)cccc2[N+](=O)[O-])cc1	-0.0259
CC(Oc1ccc(F)cc1)C(=O)/C=C\N(C)C (stereo unspecified)	0.000912
O=c1c2ccccc2nc2sc3ccccc3n12	0.369
COC(CNC(=O)c1cc(C(=O)c2c(-c3c(Cl)cccc3Cl)noc2C)c[nH]1)OC	0.0888
O=C(Nc1ccc2nc(-c3cccnc3)[nH]c2c1)C1CCCCC1	-1.46
COc1ccc(NC(C)c2cc(Cl)ccc2O)cc1 (stereo unspecified)	-0.607
COC(=O)CSC1=C(C#N)C(c2ccc(F)cc2)CC(=O)N1 (stereo unspecified)	-0.049
COc1ccccc1N1CCN(C(=O)c2ccc(CN3CCc4ccccc4C3)cc2)CC1	-0.0526
Cc1ccccc1NC(=O)CNc1ccc(Cl)c(C(F)(F)F)c1	-0.365
CNC(=O)C1C(=S)NC(N)=C(C#N)C1c1ccccc1 (stereo unspecified)	0.223
COc1cc(S(=O)(=O)N2CCOCC2)c(OC)c(S(=O)(=O)N2CCOCC2)c1	0.0665
COc1ccc2nc(-c3cccc(N)c3)[nH]c2c1	-0.108
COc1ccc(N2CCN(CC(=O)N3CCC(C)CC3)CC2)cc1	0.116
CC(=O)c1coc2ccc(OCC(=O)O)cc12	-0.987
O=C(Cc1cccs1)Nc1nnc(COc2ccccc2)s1	0.29
CCOc1ccc(S(=O)(=O)NCc2csc(C)n2)cc1	0.494
CCCN1C(=O)/C(=C/c2ccncc2)SC1=S	0.165
CCC(=O)Nc1cc(C(=O)OCC(=O)c2ccccc2Cl)ccc1C	-0.288

Compound	z-score
COc1ccc(S(=O)(=O)N2CCC(C(=O)NCC(c3cccs3)N(C)C)CC2)cc1 (stereo unspecified)	0.122
C/C(=C\c1ccccc1)C(=O)n1nnc2ccccc21	-0.278
OC(Cn1cncn1)c1ccc(Cl)cc1Cl (stereo unspecified)	-0.324
CCOc1ccccc1NC(=O)CCc1ccc(C)o1	-0.332
N=C1/C(=C\c2ccc(-c3cc(Cl)cc(Cl)c3)o2)C(=O)N=C2SC=C(c3ccccc3)N12	0.85
CCCc1c(C)[nH]c2ccccc2c1=O	-0.356
CN1CCN(NC(=O)COc2cccc(C(F)(F)F)c2)CC1	-0.103
COc1ccc(-n2nc3c(c2NC(=O)c2cc(Br)ccc2Cl)CS(=O)C3)cc1 (stereo unspecified)	-0.251
Cn1ncc2c(NCc3ccccc3)ncnc21	-0.129
CCCC(=O)Nc1nc(C)c(-c2csc(Nc3ccc(Cl)cc3)n2)s1	0.242
Cc1nc2ccccn2c1C(=O)N/N=C/c1ccccc1[N+](=O)[O-]	0.331
CC1C/C(=N\NC(=S)NCc2ccccc2)CC(C)(C)C1 (stereo unspecified)	1.66
COc1ccc(C)cc1-n1nnnc1SCC1CCCCO1 (stereo unspecified)	-0.0123
CCOC(=O)C(C)Sc1nnc(Cc2cc(=O)[nH]c(=O)[nH]2)n1-c1ccc(OCC)cc1 (stereo unspecified)	0.465
O=C(NCCCn1ccnc1)Nc1ccc(Cl)c(Cl)c1	active: 3.92
CC(C)(C)NC(=O)C(c1ccco1)N(C(=O)Cn1nnc(-c2ccc(F)cc2)n1)c1ccccc1 (stereo unspecified)	0.0125
CCN(CC)CCOC(=O)c1c(C)oc2ccc(O)cc12	1.07
COc1ccccc1OCC(=O)NCCC1=CCCCC1	-0.178
COc1ccc(CNC(=O)Nc2cccs2)cc1OC	1.39
O=C(Nc1ccc(Br)cc1)C1CCN(C(=O)c2ccc(F)cc2)CC1	-0.239
C=CCNc1nc(-c2cccc(OC)c2O)nc2ccccc12	-0.327
CSc1nc(NCc2ccco2)c2sc3nc(C(C)C)c4c(c3c2n1)CC(C)(C)OC4	-0.193
CC(=O)Nc1ccc(S(=O)(=O)Nc2nc3ccccc3nc2N2CCc3ccccc3C2)cc1	-0.323

Compound	z-score
Cc1onc(-c2ccccc2Cl)c1C(=O)Nc1ccc(N2CCOCC2)cc1	-0.313
O=C(CN1CCN(Cc2ccccc2)CC1)N/N=C/C=C/c1ccccc1[N+](=O)[O-]	0.438
CCC(=O)NC(=S)Nc1ccc(S(=O)(=O)NC(C)=O)cc1	0.551
Cn1c(=O)n(C)c2cc(/C=C3/NC(=O)N(Cc4ccccc4)C3=O)ccc21	-0.157
COc1ccc(Cn2c(CCC(=O)Nc3ccc(CC#N)cc3)nc3cccnc32)cc1	0.247
CCNc1nc(Cl)nc(N(NC(C)=O)C(C)CC)n1 (stereo unspecified)	-0.0442
CCOC(=O)c1c(C)[nH]c(=S)c(C#N)c1-c1ccc(OC)cc1	0.501
O=C(c1cccnc1)N1CCN(Cc2cccc(F)c2)CC1	-0.0119
CCOc1ccc(N2C(=O)C3C4C=CC(CC4)C3C2=O)c([N+](=O)[O-])c1 (stereo unspecified)	0.0139
CCSc1nc2c(c(-c3ccc(C)o3)c1C#N)CCCC2	-0.313
O=C(Oc1ccc2c(=O)c(Oc3ccc4ccccc4c3)coc2c1)c1cncc(Br)c1	-1.44
COC(=O)C1CCN(C(=O)c2sc3nc(-c4ccc(F)cc4)cn3c2C)CC1	-1.91
Cn1nc(C(=O)NCCN2CCOCC2)c2ccccc2c1=O	0.0382
COc1ccc(N(Cc2cc3ccc(C)cc3[nH]c2=O)C(=O)c2ccco2)cc1	-0.389
N#C/C(=C/c1cccc(C(F)(F)F)c1)c1nc(CCN2C(=O)c3ccccc3C2=O)cs1	-0.0278
c1nnnn1C12CC3CC(CC(C3)C1)C2	0.487
COc1cccc(Nc2nc(C)cc(C)c2C#N)c1	-0.0986
O=C(NC(=S)N1CCCCC1)c1cccnc1	0.39
Cc1cccc(C(=O)N2CCCCCC2)c1	0.0897
